{"source": "PubChem BioAssay AID1347165", "about": "(National Center for Advancing Translational Sciences (NCATS), 2019)", "note": "The campaign covered roughly 220,000 compounds. About 5,700 (2.6%) were called active. Inconclusive results, whose numbers are uncertain, are shown with a selection of clear calls. The call rests on the fitted dose curve; in most records, active means well fitted inhibition curve with a large enough effect; inconclusive means small, poorly fitted or top-dose-only effect; inactive means no such curve, though single readings can be large or run the other way. Potencies beside an inconclusive call are fits to weak or partial responses and may not hold up. Potency means the concentration at half of the fitted maximal effect; tags describe the fitted curve by direction and shape."}
{"molecular_target": "Lysine-specific demethylase 5B (Homo sapiens) (UniProt Q9UGL1)", "sequence (Q9UGL1 whole entry, looked up)": "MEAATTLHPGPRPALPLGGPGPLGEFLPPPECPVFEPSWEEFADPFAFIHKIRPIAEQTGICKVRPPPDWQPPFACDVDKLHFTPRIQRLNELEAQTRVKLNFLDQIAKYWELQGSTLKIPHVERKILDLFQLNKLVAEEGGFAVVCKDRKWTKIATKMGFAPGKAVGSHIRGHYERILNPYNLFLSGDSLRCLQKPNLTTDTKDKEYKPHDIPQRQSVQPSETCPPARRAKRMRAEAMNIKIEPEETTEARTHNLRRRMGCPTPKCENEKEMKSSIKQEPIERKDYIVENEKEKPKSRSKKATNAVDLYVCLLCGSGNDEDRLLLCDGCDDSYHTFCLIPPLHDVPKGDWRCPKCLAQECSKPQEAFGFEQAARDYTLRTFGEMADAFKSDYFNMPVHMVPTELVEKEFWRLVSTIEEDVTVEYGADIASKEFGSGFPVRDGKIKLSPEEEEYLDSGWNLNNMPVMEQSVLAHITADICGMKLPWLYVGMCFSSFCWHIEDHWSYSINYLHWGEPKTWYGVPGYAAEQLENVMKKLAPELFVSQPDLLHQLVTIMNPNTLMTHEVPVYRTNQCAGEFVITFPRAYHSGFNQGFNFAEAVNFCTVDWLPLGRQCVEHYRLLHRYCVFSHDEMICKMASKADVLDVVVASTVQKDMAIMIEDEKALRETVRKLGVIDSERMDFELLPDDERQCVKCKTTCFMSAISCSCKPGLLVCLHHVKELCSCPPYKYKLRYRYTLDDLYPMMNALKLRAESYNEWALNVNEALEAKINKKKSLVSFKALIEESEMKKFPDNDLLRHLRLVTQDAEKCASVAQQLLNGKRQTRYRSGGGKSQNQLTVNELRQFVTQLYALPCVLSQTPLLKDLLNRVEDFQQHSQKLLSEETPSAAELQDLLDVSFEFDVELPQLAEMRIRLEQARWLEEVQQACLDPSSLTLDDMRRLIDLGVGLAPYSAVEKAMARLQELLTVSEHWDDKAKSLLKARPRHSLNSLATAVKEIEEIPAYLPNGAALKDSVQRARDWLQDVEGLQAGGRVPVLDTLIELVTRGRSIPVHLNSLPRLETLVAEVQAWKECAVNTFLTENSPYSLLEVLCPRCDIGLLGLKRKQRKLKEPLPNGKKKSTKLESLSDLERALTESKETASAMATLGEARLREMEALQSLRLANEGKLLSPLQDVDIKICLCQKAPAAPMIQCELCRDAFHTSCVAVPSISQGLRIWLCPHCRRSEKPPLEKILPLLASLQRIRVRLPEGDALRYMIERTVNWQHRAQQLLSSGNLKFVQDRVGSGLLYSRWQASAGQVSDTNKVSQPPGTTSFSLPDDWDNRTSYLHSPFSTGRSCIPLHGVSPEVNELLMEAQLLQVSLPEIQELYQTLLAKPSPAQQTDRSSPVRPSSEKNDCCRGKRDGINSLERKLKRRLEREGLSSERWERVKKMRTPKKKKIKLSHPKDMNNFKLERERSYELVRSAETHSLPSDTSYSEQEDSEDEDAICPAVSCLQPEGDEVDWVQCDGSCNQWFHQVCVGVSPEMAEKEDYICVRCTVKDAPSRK", "assay": "Primary screen for KDM5B Histone Demethylases FDH-coupled qHTS; further: nearly all actives have a fitted effect of over 70% in size; on activity change, negative = inhibition: 0% is about no effect", "settings": "FDH-coupled NADH fluorescence (FDH is formaldehyde dehydrogenase); activity change, negative = inhibition: at 57.7 µM (top of the series) unless noted", "how_it_was_run": "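Here, H3K4me3 peptide (12.5 µM in substrate mix) is demethylated by KDM5BΔAP, 200 nM final, after 10 min compound exposure. Formaldehyde product is coupled through FDH (0.25 U/mL in mix) to NADH fluorescence; 30-min ΔRFU feeds dose-response curves.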"}
{"compound": "Cc1cccc(-c2cc(Nc3cccc(C(=O)Nc4cccc(F)c4)c3)ncn2)c1", "Potency": "inconclusive: 28.2 µM [inhibitor, partial curve, poor fit]"}
{"compound": "COc1ncccc1-c1cnc2n[nH]c(-c3ccccc3C)c2n1", "Potency": "active: 39.8 µM"}
{"compound": "Cc1cnc(-c2ccncc2)n1CCN", "Potency": "inconclusive: 15.8 µM [inhibitor, partial curve, poor fit]"}
{"compound": "COc1ccc(N2CCN(C(CNC(=O)c3cccc(OC)c3)c3cccnc3)CC2)cc1", "note": "(stereo not given)", "Potency": "inconclusive: 17.8 µM [inhibitor, partial curve, poor fit]"}
{"compound": "S=c1[nH]nc(-c2ccc(Cl)cc2)n1/N=C/C=C/c1ccco1", "Potency": "inconclusive: 35.5 µM [inhibitor, partial curve, poor fit]"}
{"compound": "Cc1ccc(C)c2[nH]c(C(=O)O)cc12", "Potency": "inconclusive: 28.2 µM [inhibitor, partial curve, poor fit]"}
{"compound": "CCOc1ccc(CN(C(=O)c2cc(=O)c3cc(Cl)ccc3o2)C2CCS(=O)(=O)C2)cc1", "note": "(stereo not given)", "Potency": "inconclusive: 35.5 µM [inhibitor, single point]"}
{"compound": "O=C(CN1CCOCC1)N1CCNc2cnc(Nc3ccc(-n4ccnc4)cc3)nc2C1", "Potency": "inconclusive: 35.5 µM [inhibitor, single point]"}
{"compound": "CC(C)c1cc(NCCN2CCOCC2)n2c(nc3ccccc32)c1C#N", "Potency": "inconclusive: 22.4 µM [inhibitor, partial curve, poor fit]"}
{"compound": "COC[C@@H]1CCCN1c1ncnc2c1CN(C1CCCNCC1)C(=O)CN2C", "note": "(stereo not given in full)", "Potency": "inconclusive: 44.7 µM [inhibitor, partial curve]"}
{"compound": "Cc1cccc(CCNC(=O)c2nn(C)c3c2CSc2ccccc2-3)c1", "activity change, negative = inhibition": "inconclusive: -32.2% [inhibitor]"}
{"compound": "Cc1[nH]c2ccc(C(=O)N3CCC(C(=O)N4CCCC4)CC3)cc2c1C", "Potency": "inactive"}
{"compound": "CNC(=O)[C@@H]1C[C@H](n2cc(-c3ccc(CN4CC[C@@H](O)C4)cc3)nn2)CN1", "Potency": "inconclusive: 22.4 µM [inhibitor, partial curve, poor fit]"}
{"compound": "COc1cccc(-c2cn3c(n2)sc2cc(C(=O)NCCC4=CCCCC4)ccc23)c1", "Potency": "inconclusive: 31.6 µM [inhibitor, partial curve, poor fit]"}
{"compound": "CC(C)NC(=O)c1cc(-c2ccc(Cl)cc2Cl)nc2c1cnn2C", "Potency": "active: 89.1 µM"}
{"compound": "COc1ccccc1CCC(=O)NC1CCN(C(=O)c2cc3c(=O)[nH]c(C)cn3n2)CC1", "Potency": "inconclusive: 25.1 µM [inhibitor, single point]"}
{"compound": "Cc1cccc(-c2nc(C)c(CCNC(=O)c3cccs3)s2)c1", "Potency": "inconclusive: 28.2 µM [inhibitor, partial curve, poor fit]"}
{"compound": "COc1ccccc1OC(C(=O)NC1CC1)c1ccccc1", "note": "(stereo not given)", "Potency": "inactive"}
{"compound": "Cc1ccc(-n2ncc(C(=O)N3CCN(C(=O)c4ccco4)CC3)c2C2CCN(C(=O)OC(C)(C)C)CC2)cc1", "Potency": "inconclusive: 39.8 µM [inhibitor, single point]"}
{"compound": "O=C(CCS(=O)(=O)c1nc(-c2ccc3c(c2)OCO3)cc(C(F)(F)F)n1)Nc1ccc(F)cc1F", "Potency": "inconclusive: 39.8 µM [inhibitor, partial curve, poor fit]"}
{"compound": "Cc1ccc(OCC(=O)NCc2cccnc2N2CCOCC2)cc1", "Potency": "inconclusive: 39.8 µM [inhibitor, partial curve, poor fit]"}
{"compound": "Oc1ccc(Sc2ccc(O)cc2)cc1", "Potency": "inconclusive: 25.1 µM [inhibitor, partial curve, poor fit]"}
{"compound": "Cc1cn2nc(C(=O)N3CCC(NC(=O)c4ccsc4)CC3)cc2c(=O)[nH]1", "Potency": "inconclusive: 31.6 µM [inhibitor, single point]"}
{"compound": "Cc1ccc2nc(-c3ccc(C)s3)cc(C(=O)NCc3ccco3)c2c1", "Potency": "inconclusive: 31.6 µM [inhibitor, partial curve, poor fit]"}
{"compound": "O=C(COC(=O)C12CC3CC(CC(Cl)(C3)C1)C2)NC(=O)c1cccc([N+](=O)[O-])c1", "Potency": "inactive"}
{"compound": "COc1cccc(C(=O)Nc2cnc(-c3ccccc3)nc2)c1", "Potency": "inconclusive: 25.1 µM [inhibitor, single point]"}
{"compound": "Cc1cccc(N(CC(=O)NCCSc2ccc(Cl)cc2)S(C)(=O)=O)c1C", "Potency": "inconclusive: 5.62 µM [inhibitor, partial curve, poor fit]"}
{"compound": "Cc1cc(NC(=O)Cc2c[nH]c3ncc(-c4ccccc4C)cc23)n(C)n1", "Potency": "inconclusive: 35.5 µM [inhibitor, partial curve]"}
{"compound": "COc1ccc(-c2cn3nc(N4CCCC(C(=O)NCCc5cccs5)C4)sc3n2)cc1", "note": "(stereo not given)", "Potency": "inactive"}
{"compound": "O=C(N[C@H]1CCN2C(=O)c3ccccc3NC(=O)[C@@H]2C1)c1ccncc1", "Potency": "inconclusive: 39.8 µM [inhibitor, single point]"}
{"compound": "O=C(O)CCCC(=O)N1Cc2ccccc2CC2(CCCN(Cc3ccncc3)C2)C1", "note": "(stereo not given)", "Potency": "inconclusive: 39.8 µM [inhibitor, partial curve]"}
{"compound": "CCOc1ccc(C(=O)N2CCC3(CC2)CN(c2ncccn2)CC3CO)cc1", "note": "(stereo not given)", "Potency": "active: 25.1 µM"}
{"compound": "COC(=O)c1ccccc1NC(=O)CN1C(=O)NC(c2ccc(C)cc2)C2=C1COC2=O", "note": "(stereo not given)", "Potency": "inconclusive: 17.8 µM [inhibitor, partial curve]"}
{"compound": "N#CCCN(C(=O)CSc1nnnn1-c1ccc(O)cc1)c1ccccc1", "Potency": "inactive"}
{"compound": "CC(C)(C)OC(=O)N1CCCC(n2c(=O)[nH]c3cccnc32)C1", "note": "(stereo not given)", "Potency": "inactive"}
{"compound": "CCOC(=O)N1CCC(N[C@@H]2CC[C@@H]2NC(=O)c2ccccn2)CC1", "Potency": "inconclusive: 6.31 µM [inhibitor, partial curve]"}
{"compound": "COc1ccc(CNC(=O)c2cc3c(=O)[nH]c4ccccc4c3n2C)c(OC)c1", "Potency": "inconclusive: 39.8 µM [inhibitor, single point]"}
{"compound": "O=C(NC1CCN(Cc2ccccc2)CC1)c1cc2n(n1)CC(c1ccc3c(c1)OCO3)OC2", "note": "(stereo not given)", "Potency": "inconclusive: 17.8 µM [inhibitor, single point]"}
{"compound": "Cc1ccccc1-c1nnc(C2CCN(S(=O)(=O)c3ccc(Cl)cc3)CC2)o1", "Potency": "inconclusive: 10 µM [inhibitor, partial curve, poor fit]"}
{"compound": "CCn1c(COc2ccc(Cl)cc2)nnc1SCC(=O)C(C)(C)C", "Potency": "inconclusive: 39.8 µM [inhibitor, single point]"}
{"compound": "O=c1c2nc(Nc3cccc(F)c3)ccc2ncn1-c1cccnc1", "Potency": "inconclusive: 56.2 µM [inhibitor, single point]"}
{"compound": "COc1ccc(/C=C2\\Oc3cc(OS(=O)(=O)c4ccccc4)ccc3C2=O)c(OC)c1OC", "Potency": "inactive"}
{"compound": "CCOc1cc(C2CC(=O)Nc3nc(SCc4ccccc4)[nH]c(=O)c32)ccc1O", "note": "(stereo not given)", "Potency": "inconclusive: 28.2 µM [inhibitor, partial curve, poor fit]"}
{"compound": "O=C(C[C@H]1NC(=O)c2ccccc2NC1=O)Nc1ccc(F)c(F)c1F", "Potency": "inactive"}
{"compound": "COc1ccc(CCc2nc3nccc(-c4cccs4)n3n2)cc1", "Potency": "inactive"}
{"compound": "O=C(Nc1cccc2cccnc12)c1ccc(F)cc1", "Potency": "inconclusive: 39.8 µM [inhibitor, single point]"}
{"compound": "CCc1ccc2oc(-c3ccc(NC(=O)c4cc(OC)c(OC)c(OC)c4)cc3)nc2c1", "Potency": "inconclusive: 28.2 µM [inhibitor, partial curve, poor fit]"}
{"compound": "COCc1ccc2c(c1)c(OC(C)(C)C(=O)NCCCn1ccnc1)nn2CCC(C)C", "Potency": "active: 35.5 µM"}
{"compound": "COc1ccccc1CC(=O)Oc1ccc2c(c1)OCO2", "Potency": "inactive"}
{"compound": "CC(Oc1ccc(Oc2ccccc2)cc1)C(N)=O", "note": "(stereo not given)", "Potency": "inconclusive: 15.8 µM [inhibitor, partial curve, poor fit]"}
{"compound": "Cn1nccc1OCc1cn2c(=O)n(C)cc(-c3ccsc3)c2n1", "Potency": "inconclusive: 8.91 µM [inhibitor, partial curve]"}
{"compound": "CCN(CC)CCCNC(=O)c1cn2ccnc(-c3ccccc3)c2n1", "Potency": "inconclusive: 15.8 µM [inhibitor, single point]"}
{"compound": "COc1ccc(-c2nc(C(=O)NCc3cccnc3)n3ccccc23)cc1", "Potency": "active: 28.2 µM"}
{"compound": "COCCNC(=O)c1nn(-c2ccc(Cl)cc2)nc1CO", "Potency": "inconclusive: 28.2 µM [inhibitor, partial curve, poor fit]"}
{"compound": "CC1(C(=O)NCc2ccccc2)Cn2c(ccc2-c2ccco2)C(=O)N1Cc1ccccc1F", "note": "(stereo not given)", "Potency": "inconclusive: 28.2 µM [inhibitor, partial curve, poor fit]"}
{"compound": "CC(C)Sc1nc(SCC(=O)O)c2c3c(sc2n1)COC(C)(C)C3", "Potency": "inconclusive: 31.6 µM [inhibitor, single point]"}
{"compound": "Cc1cc(SCC(NC(=O)c2ccccc2)C(=O)O)c2cc(Br)ccc2n1", "note": "(stereo not given)", "Potency": "inactive"}
{"compound": "COc1ccc(N2CCN(C(=O)Cn3c(-c4cccc(Cl)c4)nc(C)c(CCO)c3=O)CC2)cc1", "Potency": "inactive"}
{"compound": "Nc1cc(Cl)ccc1C(=O)OCC(=O)NC1CCCCCCC1", "Potency": "inconclusive: 28.2 µM [inhibitor, partial curve, poor fit]"}
{"compound": "COc1ccc(S(=O)(=O)N2CCN(Cc3ccc4c(c3)OCO4)CC2)cc1OC", "Potency": "inconclusive: 50.1 µM [inhibitor, single point]"}
{"compound": "O=C(Cc1ccc(Cl)cc1)N1CCC2(CC1)NC(=O)N(c1cccc(F)c1)N2", "Potency": "inactive"}
{"compound": "CCCSCCCNC(=O)c1ccc2c(c1)nc1n2CCCCC1", "Potency": "inactive"}
{"compound": "O=Cc1c(-c2cccc(Br)c2)[nH]c2ccccc12", "Potency": "inconclusive: 39.8 µM [inhibitor, single point]"}
{"compound": "CC(C)(C)C(=O)/C=c1/[nH]c(=O)/c(=C/c2ccc(F)cc2F)s1", "Potency": "inactive"}
{"compound": "Cc1cccc(C)c1NC(=O)CNC(=O)Cc1nc(-c2ccccc2)oc1C", "activity change, negative = inhibition": "inconclusive: -41% [inhibitor]"}
